According to PubChem BioAssay AID504832 (National Center for Advancing Translational Sciences (NCATS), 2011):
About 18,000 (5.8%) of roughly 310,000 compounds were called active. The inconclusive results got no clear call from the source; some entries with a clear call stand among them for comparison. Calls follow the shape of the dose curve; as a rule, active = well fitted inhibition curve with a large enough effect; inconclusive = small, poorly fitted or top-dose-only effect, or another doubt; inactive = no such curve, though single readings can be large or run the other way. No potency is given beside an inconclusive call; the fits are too rough.
Potency is read from the fitted curve at half-maximal effect; tags tell the direction and shape of the fitted curve.

Assay: Primary qHTS for delayed death inhibitors of the malarial parasite plastid, 48 hour incubation
Settings: P. falciparum luciferase growth in erythrocytes; series mostly up to 28.7 µM
Procedure, shortened: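 Luminescence readout; reporter = integrated firefly luciferase in P. falciparum. RBC culture at 2% hematocrit, 0.1% parasitemia final, 37 C/5% CO2; decreased signal taken as growth inhibition.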
In the case of `Cc1nnc(NC(=O)CCC(=O)N2CCN(CCOc3cccc4ccccc34)CC2)s1`, the Potency was inconclusive [inhibitor, partial curve, poor fit].
For `C=C(C)Cn1c(SCC)nc2ccccc2c1=O`, the Potency was inconclusive [inhibitor, single point].
For `C/C(=N/NC(=O)CN1CCN(S(=O)(=O)c2ccc(Br)cc2)CC1)c1ccncc1`, the Potency was “inactive”.
For `CCN(Cc1nc2ccccc2n1C)c1ccccc1`, the Potency was inconclusive [inhibitor, full curve, poor fit].
For `CC(=O)OCCn1c(C)[n+](CCOC(C)=O)c2cc(Cl)c(Cl)cc21`, the Potency was inconclusive [inhibitor, single point].
With `Clc1ccc(-c2nnc(N3CCCC3)nn2)cc1` the Potency was active: 0.37 µM.
In the case of `CN(C)c1ccc(C(=S)NC2CCCCC2)cc1`, the Potency was “inactive”.
For `CC(C)(C)NC(=S)N/N=C/c1cc(Br)c(O)c(Br)c1`, the Potency was inconclusive [inhibitor, single point].
With `CCc1ccc(NC2=NC(C(=O)c3ccccc3)CC(=O)N2)cc1` (stereo not given) the Potency was “inactive”.
For `CCOc1ccc(/C=C2\SC(=S)N(N3C(=O)C4CC4C3=O)C2=O)cc1` (stereo not given), the Potency was active: 4.15 µM.
For `O=C(CSc1nnc(CN2CCOCC2)n1-c1ccc(Cl)cc1)Nc1cc(Cl)ccc1O`, the Potency was inconclusive [inhibitor, single point].
In the case of `CCCCN(C)CCNC(=O)c1c[nH]c2ccc(S(=O)(=O)N(CC)CC)cc2c1=O`, the Potency was active: 3.7 µM.
In the case of `COc1ccc(C)cc1N(C(=O)Cn1nnc(-c2ccc(C)o2)n1)C(C(=O)NC1CCCC1)c1ccncc1` (stereo not given), the Potency was active: 5.22 µM.
In the case of `CCOC(=O)c1cc2c(C)n(-c3ccc(C)cc3)c(C)c2ccc1=O`, the Potency was inconclusive [inhibitor, single point].
For `O=S(=O)(NCc1ccccc1)c1ccc(S(=O)(=O)N2CCCC2)cc1`, the Potency was inconclusive [inhibitor, partial curve].
For `CCOc1ccc(/C=N\NC(=O)c2c(C)nc3cc(C)ccn23)cc1`, the Potency was “inactive”.
In the case of `CCOC(=O)CSc1nnc(CNC(=O)c2cccs2)n1CCc1ccccc1`, the Potency was “inactive”.
With `Cc1noc(C)c1CSc1nnc2scc(-c3ccc(Cl)cc3)n12` the Potency was inconclusive [inhibitor, single point].
With `CCOC(=O)c1c(NC(=O)CSc2cccc[n+]2[O-])sc(C(=O)Nc2ccccc2)c1C` the Potency was “inactive”.
With `COc1ccc(C(C(=O)NC2CCCCC2)N(C(=O)c2sc(C)nc2C)c2ccccc2C)cc1` (stereo not given) the Potency was inconclusive [inhibitor, partial curve, poor fit].
For `Cc1cc(NC2CCCCC2)nc(-c2ccccc2O)n1`, the Potency was inconclusive [inhibitor, single point].
In the case of `CC1CCC2(CC1)C(Nc1cccc(Cl)c1)=NC(=S)N2CC#N` (stereo not given), the Potency was inconclusive [inhibitor, single point].
With `COc1ccc(NC(=O)NC2CC3CCCC(C2)N3Cc2ccccc2)cc1` (stereo not given) the Potency was inconclusive [inhibitor, partial curve, poor fit].
For `Cc1cccc(C(=O)NCc2nnc(SCC(=O)NC3=NCCS3)n2C)c1`, the Potency was inconclusive [inhibitor, partial curve, poor fit].
With `O=C(CCn1cnnn1)Nc1ccccc1F` the Potency was “inactive”.
For `CCc1ccc(OCc2ccc(C(=O)NCc3ccccn3)o2)cc1`, the Potency was inconclusive [inhibitor, single point].
With `N#CC1(Cc2ccccc2Cl)c2ccccc2C=CN1C(=O)c1ccccc1` (stereo not given) the Potency was inconclusive [inhibitor, full curve].
For `COc1ccc(-c2nc(N)nc(C)c2-c2ccc(Cl)cc2)c(O)c1`, the Potency was inconclusive [inhibitor, single point].
For `Cc1csc(NC(=O)C(C)Oc2ccc(Cl)cc2C)n1` (stereo not given), the Potency was active: 13.1 µM.
For `CC(C)c1ccc(NC(=O)CN(Cc2ccccc2)S(C)(=O)=O)cc1`, the Potency was inconclusive [inhibitor, single point].
For `O=C(Nc1nc(-c2ccccn2)cs1)c1ncc(Cl)c(Cl)c1Cl`, the Potency was inconclusive [inhibitor, single point].
For `N=c1c(C(=O)NCC2CCCO2)cc2c(=O)n3ccccc3nc2n1Cc1ccccc1` (stereo not given), the Potency was inconclusive [inhibitor, partial curve].
In the case of `CCOc1ccc(C2C(C(=O)Nc3ccccc3)=C(C)N=c3s/c(=C/c4cccc(OCC(=O)O)c4)c(=O)n32)cc1` (stereo not given), the Potency was active: 0.465 µM.
In the case of `COc1ccc(S(=O)(=O)N2CCCCC2)cc1NC(=O)CN(Cc1ccco1)Cc1ccco1`, the Potency was active: 11.7 µM.
For `CCn1c(SCC(=O)Nc2sc(C)c(C)c2C#N)nnc1C(C)C`, the Potency was “inactive”.
With `CC1Cc2ccccc2N1C(=O)C1CCCN(S(=O)(=O)c2cccc3nsnc23)C1` (stereo not given) the Potency was inconclusive [inhibitor, partial curve].
In the case of `C/C(=N\NC(=O)c1nnn(-c2nonc2N)c1-c1ccc(Cl)c(Cl)c1)c1ccncc1`, the Potency was “inactive”.
For `Cc1ccc(NC(=S)NCc2ccc3c(c2)cc(C)n3C)c(C)c1`, the Potency was inconclusive [inhibitor, partial curve, poor fit].
With `O=C1C2CCCN2c2ccc(S(=O)(=O)N3CCOCC3)cc2N1Cc1cccc(C(F)(F)F)c1` (stereo not given) the Potency was active: 1.04 µM.
With `CCC1CN(C(=O)N2CCC(C(=O)NCc3ccccc3OC)CC2)c2ccccc2O1` (stereo not given) the Potency was inconclusive [inhibitor, single point].
In the case of `O=C(Nc1nnc(S(=O)(=O)N2CCOCC2)s1)c1ccc(Cl)cc1`, the Potency was inconclusive [inhibitor, partial curve, poor fit].
For `CC(C)C(C(=O)NC1CCCC1)N(CC1CCCO1)C(=O)CNS(=O)(=O)c1ccc(F)cc1` (stereo not given), the Potency was inconclusive [inhibitor, partial curve, poor fit].
In the case of `CCC(=O)Nc1ccc(C(=O)CSc2nnc(-c3ccccc3F)n2C2CC2)cc1`, the Potency was active: 2.62 µM.
For `O=C(NC1=NCCS1)c1cccc(NC(=O)c2ccco2)c1`, the Potency was “inactive”.
In the case of `COc1ccc(-c2cc(C(=O)N3CCN(C(c4ccccc4)c4ccccc4)CC3)no2)cc1`, the Potency was inconclusive [inhibitor, partial curve].
With `CCOC(=O)c1cccc(NC(=O)CCn2c(=O)oc3ccccc32)c1` the Potency was inconclusive [inhibitor, partial curve].
With `CCCn1c(CN(Cc2ccccc2)Cc2ccccc2)nc2c1c(=O)n(C)c(=O)n2C` the Potency was inconclusive [inhibitor, single point].
In the case of `N/C(=N/OCC(=O)Nc1cccc2ccccc12)c1nonc1N`, the Potency was “inactive”.
In the case of `COc1ccc(CN2CCC(C(=O)Nc3ccc(Oc4cccnc4)cc3)CC2)c(C)c1C`, the Potency was active: 7.38 µM.
In the case of `O=C(c1ccc(Br)cc1)N1CCC2(CC1)NCCc1[nH]cnc12`, the Potency was “inactive”.
For `Cn1nnc2cc(NC(=O)N3CC4(C)CC3CC(C)(C)C4)ccc21` (stereo not given), the Potency was inconclusive [inhibitor, single point].
With `Cc1cccc(NC(=S)N2CCN(C(=O)c3ccco3)CC2)c1C` the Potency was “inactive”.
With `ClC1(Cl)CC1Cn1cnc2ccccc21` (stereo not given) the Potency was inconclusive [inhibitor, partial curve, poor fit].
In the case of `COC(=O)CSc1[nH]c2ccccc2c1[N+](=O)[O-]`, the Potency was “inactive”.
With `CCOC(=O)c1c(C)oc(NC(=O)COc2ccc(Cl)cc2C)c1C#N` the Potency was inconclusive [inhibitor, partial curve, poor fit].
In the case of `O=S(=O)(NCc1ccccc1)c1ccc(Br)c2nsnc12`, the Potency was “inactive”.
For `O=C1CC(C(=O)N2CCCc3ccccc32)CN1c1ccc(Cl)cc1` (stereo not given), the Potency was “inactive”.
For `O=C(Nc1ccc(S(=O)(=O)C(F)F)cc1)c1ccc2c(=O)n3c(nc2c1)CCC3`, the Potency was inconclusive [inhibitor, partial curve, poor fit].
In the case of `CCOC(=O)c1c(CN2CCN(CC#N)CC2)n(C)c2cc(Br)c(OC)cc12`, the Potency was inconclusive [inhibitor, partial curve].
For `Cc1ccc(-c2cc(C(F)F)n3ncc(C(=O)N4CCc5ccccc54)c3n2)cc1`, the Potency was inconclusive [inhibitor, single point].
For `Cc1nc2c(c(=O)n1Cc1ccco1)c1nc3ccccc3nc1n2Cc1ccccc1`, the Potency was active: 9.28 µM.
In the case of `COC(=O)[C@H](Cc1ccccc1)NC(=O)NCc1cccs1`, the Potency was “inactive”.
In the case of `COCCCn1c(SCC(=O)OC2CCCCC2)nnc1-c1ccco1`, the Potency was inconclusive [inhibitor, partial curve, poor fit].
In the case of `COCCNC(=S)Nc1ccc2nc(N3CCCC3)cc(C)c2c1`, the Potency was inconclusive [inhibitor, single point].
With `CCN(CC)c1ccc(NC(=O)CSc2n[nH]c(-c3ccco3)n2)cc1` the Potency was “inactive”.
For `CCN1CCCC1CNC(=O)c1ccc(Sc2ccc(F)cc2)c([N+](=O)[O-])c1` (stereo not given), the Potency was inconclusive [inhibitor, single point].
With `O=C(Nc1ccc2c(c1)OCO2)[C@@H]1[C@@H]2C(=O)N(C3CCCCC3)C(=O)[C@@H]2C2c3ccccc3C=CN21` (stereo not given in full) the Potency was inconclusive [inhibitor, single point].
With `O=C(C1CCCN(S(=O)(=O)c2ccccc2[N+](=O)[O-])C1)N1CCN(c2ccccc2)CC1` (stereo not given) the Potency was inconclusive [inhibitor, partial curve].
For `CNC(=O)c1ccc(-c2ccc(Cl)c(Cl)c2)s1`, the Potency was inconclusive [inhibitor, single point].
For `Cc1cc(O)c(CN2CCN(S(=O)(=O)c3cccs3)CC2)cc1C(C)C`, the Potency was active: 1.65 µM.
